Measurements as given in PubChem BioAssay AID1508624 (National Center for Advancing Translational Sciences (NCATS), 2021).
Out of some 48,000 compounds screened, about 120 (0.25%) were called active. Roughly 4% stayed inconclusive and do not appear here. Calls come from the whole dose curve; as a rule, active = well fitted activation curve with a large enough effect; inconclusive = small, poorly fitted or top-dose-only effect, or another doubt; inactive = no such curve, though single readings can be large or run the other way. The list shows a part of the results.

test: Primary qHTS for Identification of Small Molecule Activators of Huntingtin-Antisense Promoter Activity; details: HEK293 HTT-AS promoter firefly luciferase reporter, 24 h; series mostly up to 57.5 µM; activity change, positive = activation: at the top concentration; note: nearly all actives have a fitted effect of over 55% in size
In short: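 HEK293 cells carrying firefly luciferase reporters were seeded at 2,500 per well in Opti-MEM and cultured for 24 h. They were then treated with compounds at up to 57.5 uM final for 24 h at 37 degrees C before Dual-Glo luminescence readout.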

Activity change, positive = activation, inactive:
Cc1cc(C)nc(NC(=NCCc2c[nH]c3ccc(Cl)cc23)NC(=O)c2ccccc2C)n1 -9.12%
COC(=O)C1=C(C)NC(=O)C1(NC(=O)c1cc(OC)c(OC)c(OC)c1)C(F)(F)F (stereo not drawn) -12%
CCOC(=O)c1c(NC(=O)c2ccc(S(=O)(=O)N3CCC(C)CC3)cc2)sc2c1CCN(CC)C2 -25.5%
C=Cc1ccc(Cn2nc(-c3ccc(C)cc3)ccc2=O)cc1 -14.7%
Cc1cccc(-n2cc(-c3ccccc3)c3c(NC4CCCC4)ncnc32)c1 -27.8%
O=C(NC1CCCCC1)c1ccc(CSc2nc3cccnc3n2Cc2ccc(F)cc2)cc1 -5.44%
CCOC(=O)c1c(S(=O)(=O)N2CCCC(C(=O)Nc3cc(C)ccn3)C2)c(C)n(C)c1C (stereo not drawn) 10.3%
O=C(c1cc(O)c(O)c(O)c1)c1ccc(O)c(O)c1O -0.416%
COc1ccc(OC)c(NC(=O)C2CCN(S(=O)(=O)c3ccc4c(c3)CCCC(=O)N4)CC2)c1 -14%
CCOC(=O)c1ccc(NC(=O)CCC(=O)N2Cc3ccccc3Oc3ncccc32)cc1 -22.5%
O=C1CC(c2nnc(Cc3ccc(F)cc3Cl)o2)CN1c1ccccc1 (stereo not drawn) 9.74%
O=C(CN1C(=O)COc2ccc(S(=O)(=O)N3CCCC3)cc21)N1CCN(c2ccc(F)cc2)CC1 -21.3%
Cc1cccc(-n2c(Cc3ccccc3)nnc2SCc2nc(-c3cccs3)no2)c1 -31.8%
O=C1c2[nH]nc(-c3ccccc3O)c2C(c2ccccc2F)N1Cc1cccnc1 (stereo not drawn) -10.7%
CCOC(=O)c1ccc(N2C(=O)c3n[nH]c(-c4ccco4)c3C2c2ccc(O)c(OCC)c2)cc1 (stereo not drawn) -57.7%
Cc1cccc(Nc2nnc(-c3ccc(C)c(S(=O)(=O)NCC4CCCO4)c3)c3ccccc23)c1 (stereo not drawn) -36.5%
COCCCNC(=O)c1cnc2c(-c3ccc(F)cc3)c(C)nn2c1C -0.176%
CCOC(=O)C1CCN(C(c2cccc(F)c2)c2c(O)cc(C)n(Cc3ccco3)c2=O)CC1 (stereo not drawn) -8.2%
CCN1CC(CCN2CCOCC2)C(c2ccccc2)(c2ccccc2)C1=O (stereo not drawn) -12.8%
Cn1nc(-c2ccccc2F)c2cc(C(=O)NCCc3ccc(Cl)cc3)sc21 -31.6%
COc1ccc(-c2noc(N(c3cccc(Cl)c3)c3nc(-c4ccc(OC)c(OC)c4)no3)n2)cc1OC -8.58%
CCOc1cccc(C(=O)N2CCC(c3nc4ccccc4s3)CC2)c1 -7.98%
O=C(c1ccc(Br)cc1)N1CCN(CCc2ccncc2)CC1 -22.2%
CCOc1ccc(-c2nc(SCC(=O)c3ccccc3)n[nH]2)cc1 0.0514%
CC(=O)c1ccc(NC(=O)CSc2ccc(-c3cccs3)nn2)cc1 12.9%
CN(C)c1ccc(CNC(=O)c2cnc3sc(N4CCOCC4)nn3c2=O)cc1 -10.5%
Brc1cccc(-c2nnc(CN3CCN(c4ccccn4)CC3)o2)c1 -1.18%
Cc1ccc(S(=O)(=O)Cc2ccc(C(=O)NCCc3ccc(Cl)cc3)o2)cc1 -23.6%
CCc1ccccc1Nc1nn2c(=O)c3ccc(C(=O)NC(C)c4ccccc4)cc3nc2s1 (stereo not drawn) -37.7%
COc1cc2[nH]c(=O)n(CCCC(=O)NCc3ccc(Cl)cc3)c(=O)c2cc1OC -17.7%
Cc1ccc(NC(=O)C(=O)NCC(c2cccnc2)N2CCN(c3ccccc3F)CC2)cc1Cl (stereo not drawn) -23.7%
COc1ccccc1NC(=O)c1sc2nc(C)c(C(=O)Nc3ccc(C)cc3C)c(-c3cccs3)c2c1N -7.19%
CCOc1cc2[nH]c(=O)n(CCCCC(=O)N3CCN(c4cccc(Cl)c4)CC3)c(=O)c2cc1OCC -15.2%
CCc1ccc(CN2CCc3nc(Nc4ccccc4)ncc3C2)cc1 -9.66%
Cc1cccc2sc(N(Cc3cccnc3)C(=O)c3cccs3)nc12 10.6%
CCOC(=O)c1c(C)[nH]c(CCC(=O)NCc2ccc(F)cc2)c1C -8.09%
CC(C)(C)C1CCc2c(sc3nc(-c4cc5cc(Br)ccc5oc4=O)[nH]c(=O)c23)C1 (stereo not drawn) -5.67%
CC(=O)Nc1ccc(NC(=O)c2cc3sccc3n2Cc2ccc(F)cc2)cc1 4.04%
Cc1cnc(CNC(=O)c2c(=O)c3ccc(N4CCCN(C)CC4)nc3n3c2sc2ccccc23)cn1 -23% [at 25.1 µM, percent change from vehicle, -100% = no light]
COC(=O)c1ccc(NC(=O)CN2C(=O)CCc3cc(S(=O)(=O)N4CCCCC4)ccc32)cc1 -30.4%
COc1ccc(S(=O)(=O)NCC(c2ccco2)N2CCN(c3ccccc3)CC2)cc1OC (stereo not drawn) -25.8%
CCOC(=O)c1cc(-c2ccccc2)n(CCCC(=O)Nc2cccc(C)c2C)c1C -32%
Cc1[nH]c(=O)[nH]c(=O)c1S(=O)(=O)N1CCN(c2ccccc2Cl)CC1 -18.5%
O=C(O)CCn1c(=O)c2cccn2c2cccnc21 -7.77%
N#Cc1ccccc1Cn1c(=O)n(-c2cccc(C(F)(F)F)c2)c(=O)c2sccc21 -19.9%
O=C(NC(=O)c1ccc(F)cc1)Nc1ccc(-c2cc(C(F)(F)F)nn2-c2ccccc2)cc1 -6.37%
Cc1oc2c(c(C)cc3oc(=O)c(CC(=O)NCCc4ccccc4)c(C)c32)c1C -18.3%
CN1C(C(=O)c2ccccc2)=C(OC(=O)c2ccc(Br)cc2)c2ccccc2S1(=O)=O -18.6%
Cc1ccc(NC(=O)Nc2ccc3c(c2)N(C)C(=O)c2ccccc2S3)c(C)c1 1.63%
CCOC(=O)c1c(C)[nH]c(C)c1S(=O)(=O)NCC(=O)Nc1cc(C)ccc1OC 3.25%
COc1ccccc1NC(=O)c1c(NCc2ccc(OC)c(OC)c2OC)sc2c1CCCC2 -26.1%
COc1ccc(N2CCN(S(=O)(=O)CCNC(=O)C(c3ccccc3)c3ccccc3)CC2)cc1 -21.3%
CCOC(=O)c1ccc(Nc2nc3ccccc3nc2NS(=O)(=O)c2ccc(Cl)cc2)cc1 -20.6%
CCN1CCN(CCCNC(=O)c2cnn(-c3ccccc3)c2C2CCN(C(=O)OC(C)(C)C)CC2)CC1 -5.29%
Cc1ccc(-c2c(CN3CCN(c4cccc(C(F)(F)F)c4)CC3)csc2C)cc1 -14.4%
COc1cccc(C2C=C(c3ccc(C)c(C)c3)Nc3nnnn32)c1OC (stereo not drawn) -7.05%
O=C(O)CCCC[C@@H]1SC[C@@H]2NC(=O)N[C@@H]21 -5.89%
CN1CCN(c2cc3c(cc2F)c(=O)c(C(=O)O)cn3-c2ccc(F)cc2)CC1 -5.32%
Cc1sc2ncn(CC(=O)N(C)c3ccc(Br)cc3)c(=O)c2c1S(=O)(=O)N1CCC(C)CC1 -3.5%
Cc1nc2c(C(=O)NCc3ccccc3)c[nH]n2c(=O)c1Cc1ccccc1Cl -30.5%
Cc1cccc(OCC(O)CNC(C)(C)C)c1C (stereo not drawn) -14%
Cc1cccc(NC(=O)c2c(C)oc3ncn(CC(C)C)c(=O)c23)n1 -2.29%
CC(=O)N1CCc2cc(S(=O)(=O)CCC(=O)N3CCN(c4cccc(C)c4C)CC3)ccc21 -7.39%
O=C(NCCc1ccccc1)c1cc(-c2ccc(Cl)cc2)on1 4.2%
COc1cccc(NC(=O)Nc2cccc(-c3cn4cccnc4n3)c2)c1 6.06%
CCOc1ccc(-c2nnc(Nc3ccc(S(N)(=O)=O)cc3)c3ccccc23)cc1 6.31% [at 11.5 µM, percent change from vehicle, -100% = no light]
Cc1cc(C)c(NC(=O)CSc2nc(=O)[nH]c3c2CCCC3)c(C)c1 -21.5%
CC(C)(C)c1ccc(OCC(=O)N2CCC(c3nc4ccccc4s3)CC2)cc1 2.91% [at 11.5 µM, percent change from vehicle, -100% = no light]
CCCOC1(C(F)(F)F)NC(=O)N(c2ccc(Cl)cc2)C1=O (stereo not drawn) -24.7%
CCC(=O)N1c2ccccc2CC1C(=O)NCc1ccc(OC(C)C)cc1 (stereo not drawn) -26.9%
CCN(CCCNC(=O)Cn1ncc2c([nH]c3ccc(C)cc32)c1=O)c1cccc(C)c1 -2.77%
COc1ccc(C2CC(=O)Nc3c2c(C)nn3-c2nncc(-c3ccc(C)cc3)n2)c(OC)c1OC (stereo not drawn) -14.9%
Cc1csc2nc(-c3cccc(NC(=O)C(C)C)c3)cn12 17.8%
CCc1ccccc1NC(=O)c1ccc2c(c1)N(Cc1cccc(Cl)c1)C(=O)c1ccccc1S2(=O)=O -12.7%
CCOc1ccc(-c2nc(SCC(=O)Nc3ccc4c(c3)OCO4)c(-c3ccc(F)cc3)[nH]2)cc1 -11.6%
CCOC(=O)Nc1ccc(NCc2ccc(F)cc2)nc1N
Cc1ccc(C)c(CN2C(=O)C(=O)c3ccccc32)c1 -25.2%
COc1cc(NC(=O)c2ccc(C)cc2)ccc1NC(=O)c1cc2ccccc2o1 10.3%
COCC(=O)Nc1c(I)c(C(=O)NCC(O)CO)c(I)c(C(=O)N(C)CC(O)CO)c1I (stereo not drawn) -10.8%
O=C1CSC2(C(=O)N(Cc3ccccc3F)c3ccccc32)N1c1ccc(F)cc1 (stereo not drawn) -36.8%
O=C(NCCc1ccccc1)c1ccc(CS(=O)(=O)c2ccc(Br)cc2)o1 -16.9%
COc1ccc(-n2ccnc2SCC(=O)Nc2ccc(F)cc2F)cc1 -12.9%
CCSc1nnc2n(-c3cccc(C)c3)c(=O)c3c4c(sc3n12)CCCC4 -0.74%
Cc1coc2ccccc2c1=O 3.18%
COc1ccc(CCC(=O)N2CCc3c([nH]c4ccccc34)C2c2ccc(F)cc2)cc1 (stereo not drawn) -33.3%
Cc1ccc2onc(CNC(=O)N3CCN(c4cccc(C)c4C)CC3)c2c1 -27.3%
COC(=O)c1c(-c2cccs2)csc1NC(=O)COc1ccc(C(C)(C)C)cc1 -8.03%
CCOc1ccccc1NC(=O)c1nn(-c2ccc(C)cc2)c(=O)n(C)c1=O -10.4%
CCOc1ccccc1C1C(C(=O)N2CCCCC2)=C(C)Nc2nc3ccccc3n21 (stereo not drawn) -14.3%
Cc1ccc(C(=O)Nc2ccc(-c3cn4cccnc4n3)cc2)cc1C 18%
COc1ccccc1CNc1ccc(-c2nc(-c3cccnc3)no2)cc1[N+](=O)[O-] 11.4%
CCc1ccc(NC(=O)c2sc(-n3nc(C)c(Cc4ccc(OC)cc4)c3C)nc2C)cc1 -19.6%
COc1ccc(N(C)C(=O)CCn2cnc3onc(-c4ccc(F)cc4)c3c2=O)c(OC)c1 -31.9%
